Reference: PubChem BioAssay AID588579 (National Center for Advancing Translational Sciences (NCATS), 2011)
Several values for one entry are separate records, joined by “and”; a condition that tells them apart may be missing. Identical values can stand only once. The campaign covered roughly 400,000 compounds. About 2,200 (0.55%) were called active. The inconclusive results got no clear call from the source; some entries with a clear call stand among them for comparison. Calls follow the shape of the dose curve; as a rule, active = well fitted inhibition curve with a large enough effect; inconclusive = small, poorly fitted or top-dose-only effect, or another doubt; inactive = no such curve, though single readings can be large or run the other way. A potency beside an inconclusive call is a rough fit, not a confirmed value.

Target: DNA polymerase kappa (Homo sapiens) (UniProt Q9UBT6)
Assay: qHTS for Inhibitors of Polymerase Kappa
Conditions: purified Pol kappa, fluorescent DNA synthesis assay, 10 min; series mostly up to 107 µM
How it was run: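 First, compounds were pin-transferred onto 10 nM Pol kappa. After 15 min at room temperature, substrate was added to 50 nM final. Fluorescence was then measured kinetically at 0 and 10 min.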
% is scaled to controls: 0 for no effect and ±100 for the full control effect; potency is read from the fitted curve at half-maximal effect; tags tell the direction and shape of the fitted curve.

Chain of UniProt Q9UBT6 (Q9UBT6 whole entry, looked up): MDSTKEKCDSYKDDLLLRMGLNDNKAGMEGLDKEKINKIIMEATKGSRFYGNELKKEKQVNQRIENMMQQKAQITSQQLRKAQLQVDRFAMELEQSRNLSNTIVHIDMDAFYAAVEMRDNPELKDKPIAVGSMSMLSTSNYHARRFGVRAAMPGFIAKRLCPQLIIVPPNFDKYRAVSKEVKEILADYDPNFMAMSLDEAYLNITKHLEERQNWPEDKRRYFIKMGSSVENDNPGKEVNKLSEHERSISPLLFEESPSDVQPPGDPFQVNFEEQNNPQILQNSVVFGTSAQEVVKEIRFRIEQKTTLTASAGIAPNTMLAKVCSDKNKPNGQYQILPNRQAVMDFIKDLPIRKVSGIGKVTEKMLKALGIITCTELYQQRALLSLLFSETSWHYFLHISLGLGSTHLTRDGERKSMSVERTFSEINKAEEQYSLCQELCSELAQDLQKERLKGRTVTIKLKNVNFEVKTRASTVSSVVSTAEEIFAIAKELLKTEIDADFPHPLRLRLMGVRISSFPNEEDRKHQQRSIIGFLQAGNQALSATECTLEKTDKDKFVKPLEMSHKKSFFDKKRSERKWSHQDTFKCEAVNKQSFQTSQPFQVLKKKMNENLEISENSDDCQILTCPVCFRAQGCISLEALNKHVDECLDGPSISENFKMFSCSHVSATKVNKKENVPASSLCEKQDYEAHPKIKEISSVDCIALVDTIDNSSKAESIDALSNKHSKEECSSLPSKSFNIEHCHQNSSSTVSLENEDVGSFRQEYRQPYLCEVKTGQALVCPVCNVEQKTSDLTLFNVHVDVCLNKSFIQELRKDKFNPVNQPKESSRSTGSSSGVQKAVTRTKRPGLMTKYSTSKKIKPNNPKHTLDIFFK

Potency, inconclusive:
C#CCCc1cocc1/C=[N+](\[O-])c1ccc(C(=O)OCC)cc1 56.2 µM [inhibitor, partial curve, poor fit], CCOC(=O)COc1ccc(S(=O)(=O)NCc2ccco2)cc1 100 µM [inhibitor, single point], O=C(O)/C=C/C(=O)N1Cc2cc3ccccc3nc2C1 35.5 µM [inhibitor, single point], COc1cc(C2C(C#N)=C(N)Oc3n[nH]c(C)c32)cc2c1OCO2 (configuration not stated) 89.1 µM [inhibitor, single point], Cc1cc(C)n(-c2ccc(C(=O)OCC(=O)c3ccc(Br)s3)cc2)n1 100 µM [inhibitor, single point], C=CCn1c(=NC(=O)c2sc3ccccc3c2Cl)sc2cc(S(N)(=O)=O)ccc21 50.1 µM [inhibitor, partial curve, poor fit], O=C(CN1C(=O)/C(=C2/SC(=S)N(CCS(=O)(=O)O)C2=O)c2ccccc21)Nc1cccc(Br)c1 89.1 µM [inhibitor, partial curve, poor fit], O=[N+]([O-])c1cc(CN2CCCC2)c2cccnc2c1O 56.2 µM [inhibitor, partial curve, poor fit], COC(=O)C1=C(C)NC(C)=C(C(=O)OCCNCc2ccccc2)C1c1cccc([N+](=O)[O-])c1 (configuration not stated) 39.8 µM [inhibitor, partial curve, poor fit], CN(CC(=O)Nc1cccc(C(F)(F)F)c1)S(=O)(=O)c1cccs1 89.1 µM [inhibitor, single point], CCN(CC)S(=O)(=O)c1ccc(/C=C/C(=O)OCC(=O)NCc2ccco2)cc1 56.2 µM [inhibitor, partial curve, poor fit], CCCCCc1c2c(cc(O)c1C(=O)O)OC(=O)c1c(cc(OC)cc1C(=O)CCCC)O2 79.4 µM [inhibitor, partial curve, poor fit], O=C(O)c1cccc2c1C(=O)N(C1CCCCC1)C2 56.2 µM [inhibitor, partial curve, poor fit], C/C(N)=C(/C#N)C(=O)CSc1nc2ccccc2[nH]1 89.1 µM [inhibitor, single point], NNc1nc2sc3c(c2c(=O)n1Cc1ccccc1)CCC3 100 µM [inhibitor, single point], CCCC(NC(=O)Cc1c(C)c2cc3c(C)c(C)oc3c(C)c2oc1=O)C(=O)N[C@@H](Cc1ccccc1)C(=O)O (some centres not stated) 79.4 µM [inhibitor, partial curve, poor fit], CCOc1ccc(-n2c(O)c(/C=N/Nc3nnc(C)c(=O)[nH]3)c3ccccc3c2=O)cc1 56.2 µM [inhibitor, partial curve, poor fit], COC(=O)c1ccc(NC(=O)c2cc(=O)c3ccc(C)cc3o2)cc1 100 µM [inhibitor, partial curve, poor fit], CCN(CC)c1ccc(N=Cc2ccc([N+](=O)[O-])o2)cc1 56.2 µM [inhibitor, partial curve, poor fit], O=C(/C=C/c1ccco1)NCC(=O)N/N=C/c1ccc([N+](=O)[O-])cc1 89.1 µM [inhibitor, single point], CCCCc1cc(=O)oc2cc(C)c(CN3CCCC3)c(O)c12 20 µM [inhibitor, full curve, poor fit]

Potency, inactive:
Cc1cc(Cl)c(OCCOCCN2CCCC(C)C2)c(Br)c1 (configuration not stated), CCOC(=O)CN1C(=O)C(O)(CC(=O)c2cc(OC)ccc2OC)c2ccccc21 (configuration not stated), Cc1nc(N2C(=O)c3oc4ccccc4c(=O)c3C2c2cccc(OCCC(C)C)c2)sc1C (configuration not stated), CCOc1ccc(CNS(=O)(=O)c2c(C(=O)N3CCC(C)CC3)c(C)n(C)c2C)cc1OC, CCn1ncc(/C=N\NC(=O)COc2cc(C)cc(C)c2)c1C, O=C(O)C1Oc2ccccc2C1c1ccccc1 (configuration not stated), CC(=O)c1cccc(NC(=O)CSc2nc(C3CC3)nc3ccccc23)c1, CCC(Sc1nc2ccsc2c(=O)n1Cc1ccc(C(=O)O)cc1)C(=O)Nc1ccc(C)c(Cl)c1 (configuration not stated), Cc1ccc(-n2nc(CO)c(C(=O)NCc3ccccn3)n2)cc1C, CCc1cccc(CC)c1NC(=O)CN1C(=O)C(=O)c2ccccc21, CN(C)c1ncc2nc(-c3ccc(Cl)cc3)c(=O)n(C)c2n1, COC(=O)c1ccccc1NC(=O)c1c(NC(=O)c2ccco2)sc2c1CCC(C(C)(C)C)C2 (configuration not stated)

Potency, active:
Cc1ccc(OCC(=O)N/N=C/C=C/c2ccco2)c(Br)c1 79.4 µM, Cc1ccc(C)n1Cc1ccc(C(=O)O)cc1 1.26 µM, COc1ccc2[nH]c3c(C)c4cc[n+](C)cc4c(C)c3c2c1 2.38 µM and 11.2 µM, N#C/C(=C\c1coc2ccc(O)cc2c1=O)C(=O)Nc1nc2ccccc2s1 2.82 µM, Cc1ccc(C(=O)OCC(=O)c2ccc(CC(=O)N3CCOCC3)s2)c(C)c1 17.8 µM, O=c1[nH]c2cc3c(cc2cc1CN(Cc1cccs1)Cc1nnnn1Cc1ccco1)OCCO3 25.1 µM, O=C1C2C(C(=O)N1/N=C/c1cc([N+](=O)[O-])c(O)cc1O)C1C=CC2C12CC2 (configuration not stated) 50.1 µM, Cc1[nH][nH]c(=O)c1C(c1ccc(-c2cccc(C(=O)O)c2)o1)c1c(C)[nH][nH]c1=O 89.1 µM

activity, negative = inhibition, inactive:
CC(C)[C@H](NC(=O)[C@@H](Cc1c[nH]c2ccccc12)NC(=O)[C@H](Cc1ccc(O)cc1)NC(=O)[C@@H](N)CC(=O)O)C(=O)N[C@H](Cc1c[nH]c2ccccc12)C(=O)N[C@H](Cc1c[nH]c2ccccc12)C(=O)N[C@@H](CCCCN)C(N)=O -9.68% [at 12 µM]
